The inconclusive results got no clear call from the source; some entries with a clear call stand among them for comparison. For part of these data: Potencies of inconclusive entries are left out as doubtful fits. Activity calls are given as the source filed them. Unless noted, calls follow the shape of the dose curve; as a rule, active = well fitted curve in the direction sought with a large enough effect; inconclusive = small, poorly fitted or top-dose-only effect, or another doubt; inactive = no such curve, though single readings can be large; an effect the other way counts as inactive or inconclusive.
How the values were obtained:
[1] = qHTS of pediatric cancer cell lines to identify multiple opportunities for drug repurposing: Primary screen for Saos-2 cells (AID 1347097); conditions: Saos-2 viability, CellTiter-Glo ATP luminescence, 48 h; series mostly up to 46 µM; also: nearly all actives have a fitted effect of over 40% in size
Outline: (§1)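 500-1,000 cells/well; 5 h pre-incubation 37 °C/5% CO2; compound pinned; 48 h; CellTiter-Glo, 15 min RT; luminescence. MIPE 11-pt from 0.78 nM, NPC 8-pt from 0.59 nM final. Bortezomib 2.3 µM final as positive control.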

[2] = qHTS of pediatric cancer cell lines to identify multiple opportunities for drug repurposing: Primary screen for RD cells (AID 1347104); also: nearly all actives have a fitted effect of over 55% in size
Outline: as §1

[3] = qHTS of pediatric cancer cell lines to identify multiple opportunities for drug repurposing: Primary screen for control Hh wild type fibroblast cells (AID 1347106);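 also: a drop in luminescence marks cytotoxicity and a rise apparent proliferation; nearly all actives have a fitted effect of over 55% in size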
Outline: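 Cells (500-1,000/well) in growth media were settled 5 h at 37 degrees C, then given compounds for 48 h. Viability was read as CellTiter-Glo luminescence. Primary runs used MIPE at 11 points (0.78 nM-46 µM) and NPC at 8 points (0.59 nM-46 µM); follow-ups used 11 points.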

[4] = Primary qHTS for small molecule stabilizers of the endoplasmic reticulum resident proteome: Secreted ER Calcium Modulated Protein (SERCaMP) assay (AID 1508630); conditions: SH-SY5Y GLuc-SERCaMP (Gaussia luciferase released on ER calcium loss) secretion, thapsigargin, luminescence; activity change, negative = inhibition: at 38.4 µM (top of the series) unless noted; also: potency is read from the fitted curve at half-maximal effect
Outline: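 The SH-SY5Y reporter protocol was run at 3 concentrations up to 38.3 uM (primary) or 11 concentrations (follow-up): 16 h compound, 100 nM thapsigargin for 4 h, then extracellular luciferase luminescence.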

[5] = biological target: Cytochrome P450 2D6 (Homo sapiens) (UniProt P10635); experiment: Cytochrome P450 family 2 subfamily D member 6 (CYP2D6) small molecule antagonists: luciferase biochemical (cell-free) qHTS assay (AID 1645840; active = well fitted curve in the direction sought with a large enough effect in the repeat runs; inconclusive = weak or mixed curves; inactive = no such curve, though single readings can be large; an effect the other way counts as inactive or inconclusive; also: nearly all actives have a fitted effect of over 55% in size; also: potency is read from the fitted curve at half-maximal effect)
UniProt P10635, sequence (P10635 whole entry, looked up): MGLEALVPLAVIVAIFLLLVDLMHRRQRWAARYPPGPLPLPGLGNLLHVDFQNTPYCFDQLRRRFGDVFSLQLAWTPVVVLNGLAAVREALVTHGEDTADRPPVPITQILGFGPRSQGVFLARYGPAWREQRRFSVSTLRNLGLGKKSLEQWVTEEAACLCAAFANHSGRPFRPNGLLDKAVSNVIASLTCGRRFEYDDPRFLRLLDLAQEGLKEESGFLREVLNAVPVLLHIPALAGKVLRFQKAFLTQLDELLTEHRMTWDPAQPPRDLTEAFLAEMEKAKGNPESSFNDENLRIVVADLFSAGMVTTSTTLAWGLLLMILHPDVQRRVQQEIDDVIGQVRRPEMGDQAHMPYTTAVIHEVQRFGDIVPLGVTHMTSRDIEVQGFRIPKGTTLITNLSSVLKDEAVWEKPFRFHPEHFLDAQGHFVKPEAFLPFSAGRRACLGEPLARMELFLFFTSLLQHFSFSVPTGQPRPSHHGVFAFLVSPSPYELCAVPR
Outline: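 P450-Glo CYP2D6 system: proluciferin substrate converted by enzyme to luciferin, read by luminescence proportional to activity. Enzyme-substrate mix with compound 10 min at room temperature, then NADPH regeneration 1 h before detection reagent.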

[6] = Primary qHTS for inhibitors of nuclear receptor binding SET domain protein 2 (NSD2) in an RCH-ACV wild type WT cells (2C) (AID 1645877); conditions: activity change, negative = cell killing: at 44.9 µM (top of the series) unless noted; also: nearly all actives have a fitted effect of over 70% in size; also: potency is read from the fitted curve at half-maximal effect
[7] = tested on: SKOV3; experiment: Primary qHTS to identify gynecologic anti-cancer compounds using libraries of approved drugs and bioactive compounds (AID 1345084); conditions: Gynecologic cancer cell panel viability, ATPlite luminescence, 48 h; series mostly up to 57.5 µM; also: nearly all actives have a fitted effect of over 55% in size; also: potency is read from the fitted curve at half-maximal effect
Outline: (§2)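 Five-concentration response, 48 h; readout is ATP-driven luciferase luminescence.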

[8] = tested on: Tov-21-G; experiment: as above; conditions: Gynecologic cancer cell panel viability, ATPlite luminescence, 48 h; series mostly up to 57.5 µM
Outline: as §2

[9] = biological target: Glutathione peroxidase 1 (Homo sapiens) (UniProt P07203); experiment: Primary qHTS Assay for Inhibitors of Recombinant Selenoprotein Glutathione Peroxidase 1 (GPX1) (AID 1845191); also: nearly all actives have a fitted effect of over 65% in size
UniProt P07203, sequence (P07203 whole entry, looked up): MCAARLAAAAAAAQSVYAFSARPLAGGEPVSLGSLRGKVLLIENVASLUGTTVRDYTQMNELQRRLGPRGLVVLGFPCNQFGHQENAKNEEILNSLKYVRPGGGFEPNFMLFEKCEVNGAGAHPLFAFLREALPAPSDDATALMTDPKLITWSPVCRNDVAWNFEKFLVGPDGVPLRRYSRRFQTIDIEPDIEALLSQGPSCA
Outline: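 GR-coupled readout: NADPH consumption tracked by fluorescence, ex 340/em 450 nm, at t=0 and after 15 min at RT. Final mix 10 nM GPX1, 1 mM GSH, 0.5 mM CHP, 0.5 mM NADPH, 100 nM GR, 0.01% BSA, following 30 min enzyme–compound preincubation.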

[10] = Primary fluorescence-based thiol-reactive (MSTI) qHTS assay for identification of artifact compounds. (AID 1845221);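 also: potency is read from the fitted curve at half-maximal effect; thiol-reactive compounds lower the probe fluorescence signal; nearly all actives have a fitted effect of over 65% in size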
Outline: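 In PBS pH 7.4 with 2% DMSO, each compound met 4 uM MSTI for one hour at ambient temperature, shielded from light, before fluorescence detection.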

[11] = tested on: PA-1; experiment: Primary qHTS to identify gynecologic anti-cancer compounds using libraries of approved drugs and bioactive compounds (AID 1345084); conditions: Gynecologic cancer cell panel viability, ATPlite luminescence, 48 h; series mostly up to 57.5 µM; also: nearly all actives have a fitted effect of over 55% in size; also: potency is read from the fitted curve at half-maximal effect
Outline: as §2

[12] = biological target: Phospholipid hydroperoxide glutathione peroxidase GPX4 (Homo sapiens) (UniProt P36969); experiment: Primary qHTS Assay for Inhibitors of Recombinant Selenoprotein Glutathione Peroxidase 4 (GPX4) (AID 1845192); conditions: activity change, negative = inhibition: at 50 µM (top of the series) unless noted; also: nearly all actives have a fitted effect of over 65% in size
UniProt P36969, sequence (P36969 whole entry, looked up): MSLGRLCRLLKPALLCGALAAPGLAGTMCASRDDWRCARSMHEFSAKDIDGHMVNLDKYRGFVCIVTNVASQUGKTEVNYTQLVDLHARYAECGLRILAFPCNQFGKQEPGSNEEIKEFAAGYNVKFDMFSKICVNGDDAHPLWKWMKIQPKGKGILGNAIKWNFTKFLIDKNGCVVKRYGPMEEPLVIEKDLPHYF
Outline: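 Steps: GPX4 plus compound, 30 min RT; add GR/GSH/NADPH master mix; start with cumene hydroperoxide; read 340/450 nm fluorescence at 0 and 15 min. Finals were 200 nM GPX4, 1 mM GSH, 0.5 mM CHP, 0.5 mM NADPH, 100 nM GR.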

[13] = tested on: Zika virus NS2B-NS3 protease (unlinked complex); experiment: Primary screen GU Rhodamine qHTS for Zika virus inhibitors: Unlinked NS2B-NS3 protease assay (AID 1347159); conditions: Recombinant ZIKV NS2B-NS3 protease, Rhodamine110 substrate fluorescence; activity change, negative = inhibition: at 107 µM (top of the series); also: nearly all actives have a fitted effect of over 60% in size
Outline: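 Unlinked NS2B/NS3, 25 nM; Rhod110 peptide, 1.5 microM; compounds, up to 114 microM. Reaction run 15 min at RT in 10 mM Tris-HCl pH 8.0, 0.01% Tween 20; kinetic fluorescence change fitted with a 4-parameter Hill model.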

[14] = Primary redox qHTS assay for identification of artifact compounds. (AID 1845223); also: potency is read from the fitted curve at half-maximal effect
Outline: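 Redox-cycling detection via DTT (250 uM final) oxidation coupled to Amplex Red (25 uM)/HRP (250 mU/mL) in HBSS. 15 min preincubation plus 30 min after DTT, room temperature. Ex/Em 525/598 nm; 4-parameter Hill fit against DMSO and 10 uM DA3003.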

[15] = biological target: Cytochrome P450 2C9 (Homo sapiens) (UniProt P11712); experiment: Cytochrome P450 family 2 subfamily C member 9 (CYP2C9) small molecule antagonists: luciferase biochemical (cell-free) qHTS assay (AID 1645842; active = well fitted curve in the direction sought with a large enough effect in the repeat runs; inconclusive = weak or mixed curves; inactive = no such curve, though single readings can be large; an effect the other way counts as inactive or inconclusive; also: nearly all actives have a fitted effect of over 55% in size)
UniProt P11712, sequence (P11712 whole entry, looked up): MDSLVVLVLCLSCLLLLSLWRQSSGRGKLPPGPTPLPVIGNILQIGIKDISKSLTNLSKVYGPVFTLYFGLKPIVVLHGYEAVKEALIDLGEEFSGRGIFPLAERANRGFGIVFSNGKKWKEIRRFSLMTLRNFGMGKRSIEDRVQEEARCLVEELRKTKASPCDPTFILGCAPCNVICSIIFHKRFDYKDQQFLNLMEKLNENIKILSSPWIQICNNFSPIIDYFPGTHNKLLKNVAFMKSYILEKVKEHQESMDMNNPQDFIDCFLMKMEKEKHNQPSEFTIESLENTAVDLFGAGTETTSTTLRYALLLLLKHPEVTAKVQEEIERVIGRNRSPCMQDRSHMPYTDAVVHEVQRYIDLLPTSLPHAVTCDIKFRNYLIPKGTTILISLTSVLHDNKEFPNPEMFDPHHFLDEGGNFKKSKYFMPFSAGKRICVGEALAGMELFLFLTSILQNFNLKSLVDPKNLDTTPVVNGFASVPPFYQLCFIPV
Outline: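 P450-Glo CYP2C9 system: proluciferin substrate with enzyme in mix containing 0.4% BSA, 10 min at room temperature, then NADPH regeneration solution added and incubated 1 h at 37C. Detection reagent stopped reaction; luminescence read after 20 min as RLU.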
Tags tell the direction and shape of the fitted curve.

With `COC(=O)c1cc(Cl)ccc1OC` the Potency [1] was “inactive”, the Potency [2] was “inactive” and the Potency [3] was “inactive”. For the same molecule, the Potency [4] was inconclusive [inhibitor, partial curve, poor fit], the Potency [5] was “inactive” and the Potency [6] was inconclusive [inhibitor, single point]. The Potency [7] was “inactive” and the Potency [8] was “inactive”.

With `CC1=CC23[C@H](C=C(C(=O)O)[C@@H]2COC(=O)[C@]3(O)CO)[C@@H]1C` (stereo partly specified) the Potency [9] was “inactive”, the Potency [10] was inconclusive [inhibitor, partial curve] and the Potency [11] was “inactive”.

With `COC1=Cc2c(nc3n(c2=O)C(C)C(=O)NC3(O)C(C)C)OC=C1` (stereo unspecified) the Potency [6] was “inactive”, the Potency [10] was inconclusive [inhibitor, partial curve] and the Potency [11] was “inactive”.

In the case of `CC1(C)CC[C@]2(C(=O)O)CC[C@]3(C)C(=CCC4[C@@]5(C)CC[C@H](O[C@@H]6O[C@H](C(=O)O)[C@@H](O)[C@H](O)[C@H]6O)C(C)(CO)C5CC[C@]43C)C2C1` (stereo partly specified), the Potency [6] was “inactive” and the Potency [11] was “inactive”.

In the case of `COC(=O)C1=CO[C@@H](O[C@@H]2O[C@H](CO)[C@@H](O)[C@H](O)[C@H]2O)[C@H]2[C@@H]1C=C[C@]21C=C([C@H](C)OC(=O)/C=C/c2ccc(O[C@@H]3O[C@H](CO)[C@@H](O)[C@H](O)[C@H]3O)cc2)C(=O)O1`, the Potency [12] was “inactive” and the Potency [11] was inconclusive [rising, single point].

With `COC(=O)C1=CO[C@@H](O[C@@H]2O[C@H](CO)[C@@H](O)[C@H](O)[C@H]2O)[C@@H]2[C@@H](C)[C@@H](OC(=O)/C=C/c3ccccc3)[C@@H](O)[C@H]12` the Potency [13] was “inactive”, the Potency [10] was inconclusive [inhibitor, single point] and the Potency [14] was inconclusive [activator, single point]. For the same molecule, the Potency [7] was “inactive” and the Potency [8] was “inactive”.

For `O=C1N(CC2CCCCN2)CCN1c1ccccc1` (stereo unspecified), the Potency [5] was active: 15.1 µM, the Potency [14] was “inactive” and the Potency [7] was inconclusive [rising, full curve, poor fit]. For the same molecule, the Potency [8] was “inactive”.

In the case of `CC1(C)C[C@H]2C3=CCC4[C@@]5(C)CC[C@H](O[C@H]6O[C@H](C(=O)O)[C@@H](O)[C@H](O)[C@H]6O[C@H]6O[C@H](CO)[C@@H](O)[C@H](O)[C@H]6O[C@@H]6O[C@H](CO)[C@@H](O)[C@H](O)[C@H]6O)[C@](C)(CO)C5CC[C@@]4(C)[C@]3(C)CC[C@@]2(C)[C@H](O[C@@H]2OC[C@H](O)[C@H](OC3O[C@H](CO)[C@@H](O)[C@H](O)[C@H]3O)[C@H]2O)[C@@H]1O` (stereo partly specified), the Potency [14] was inconclusive [activator, partial curve, poor fit] and the Potency [11] was inconclusive [rising, partial curve, poor fit].

For `Cc1cc(Cn2cnc3c2CC(C(=O)O)N(C(=O)C(c2ccccc2)c2ccccc2)C3)ccc1N(C)C` (stereo unspecified), the Potency [5] was “inactive”, the Potency [15] was “inactive” and the Potency [7] was inconclusive [rising, single point]. The Potency [8] was “inactive”.

In the case of `CC1=CC(=O)CC(C)(C)[C@@]1(O)CC[C@@H](C)O[C@@H]1O[C@H](CO)[C@@H](O)[C@H](O)[C@H]1O`, the Potency [6] was “inactive”, the Potency [10] was inconclusive [inhibitor, partial curve] and the Potency [11] was inconclusive [cytotoxic, partial curve].

— PubChem BioAssay (NCATS)
